This data set relates to NCI-H322M. Particulars: for CC50: read-out: LC50, NCI-H322M (Non-Small Cell Lung Cancer), 48 h. The method, then:
The assay is conducted according to the procedure published previously (Monks, A. et al., J. Natl. Cancer Inst. 83,:757-766, 1991). Briefly, cell suspensions that were diluted according to the particular cell type and the expected target cell density (5000-40,000 cells per well based on cell growth characteristics) were added by pipette (100 μl) into 96-well microtiter plates. Inoculates were allowed a preincubation period of 24h at 37° C. for stabilization. Dilutions at twice the intended test concentrations of the test compounds were added at time zero in 100 μl aliquots to the microtiter plate wells. The plates were incubated for 48 h in 5% CO2 atmosphere and 100% humidity. The cells were assayed by using the sulforhodamine B assay (Rubinstein, L. V. et al. J. Natl. Cancer Inst. 82:1113-118, 1990; Skehan, P. et al., J. Natl. Cancer Inst. 82:1107-1112, 1990). The plates were read by a plate reader. The following parameters were calculated from the optical densities:
GI50, concentration of drug that causes 50% growth inhibition; where (T−T0)/(C−T0)×100=50

The structures appear in SMILES notation. Some results are limits rather than exact numbers.

This passage reports GI50, TGI and CC50 results from US6677310B1, “Ring-expanded nucleosides and nucleotides” (Nabi, priority 1999, dated 2004).

One may read the GI50 as the concentration that inhibits growth by half. Read a high GI50 as lower sensitivity of the cells. In general, TGI refers to the concentration at which net growth stops. A low value points to more potent growth arrest. Consider `N=c1nc(N)c2ncn([C@@H]3O[C@H](COC(=O)c4ccccc4)[C@@H](OC(=O)c4ccccc4)[C@H]3OC(=O)c3ccccc3)c2c(N)n1` [4,8-Diamino-6H-6-imino-1(2′,3′,5′-tri-O-benzoyl-β-D-ribofuranosyl)imidazo[4,5-e][1,3]diazepine], for which the GI50 was found to be 8.38 µM, the TGI was 24 µM and the CC50 is 62.4 µM.
On the same counts, the results for `N=c1[nH]c(=O)c2ncn([C@@H]3O[C@H](CO)[C@@H](O)[C@H]3O)c2c(=O)[nH]1` [Compound 14-1, 6-Imino-6H-1-β-D-ribofuranosyl-4,5,7,8-tetrahydroimidazo[4,5-e][1,3]diazepine-4,8-dione] are greater than 100 µM, greater than 100 µM and greater than 100 µM.
Take `N=c1nc(N)c2ncn([C@@H]3O[C@H](CO)[C@@H](O)[C@H]3O)c2c(N)n1` [Compound 14-2, 4,8-Diamino-6H-6-imino-1-β-D-ribofuranosylimidazo[4,5-e][1,3]diazepine]: the GI50 stood at 25.3 µM, the TGI was found to be 89 µM and the CC50 was greater than 100 µM.
